Experimental data published in PMC7684313, “In vitro and in vivo pharmacological activity of minor cannabinoids isolated from Cannabis sativa” (Scientific Reports, 2020).

System: hCB1R and hCB2R

Q: For `CCCCCc1cc2c(c(O)c1C(=O)O)[C@@H]1C=C(C)CC[C@H]1C(C)(C)O2` [∆^9-THCa, ∆^9-tetrahydrocannabinolic acid], which “selectivity between hCB1R and hCB2R, in words” value is on record?
A: Its value is “hCB2R-selective”.
